Measurements published in article PMC9596381 (2022).

How the values were obtained:
Assay in all cases: SPR, apparent 1:1 fit
Unc5D = Unc5D (Rattus norvegicus (Rat), UniProt F1LW30)
Unc5A = Unc5A (Mus musculus (Mouse), UniProt Q8K1S4)
Unc5B = Unc5B (Mus musculus (Mouse), UniProt Q8K1S3)
Unc5C = Unc5C (Mus musculus (Mouse), UniProt O08747)
Sequence of Unc5C (O08747 56-316): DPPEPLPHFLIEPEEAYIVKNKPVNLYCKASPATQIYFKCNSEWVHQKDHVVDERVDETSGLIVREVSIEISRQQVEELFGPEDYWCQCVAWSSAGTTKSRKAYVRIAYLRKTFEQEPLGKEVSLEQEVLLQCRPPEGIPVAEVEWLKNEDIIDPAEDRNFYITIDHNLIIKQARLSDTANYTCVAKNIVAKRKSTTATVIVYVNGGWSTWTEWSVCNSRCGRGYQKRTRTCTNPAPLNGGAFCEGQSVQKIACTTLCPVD

Sequence of Unc5B (Q8K1S3 42-302): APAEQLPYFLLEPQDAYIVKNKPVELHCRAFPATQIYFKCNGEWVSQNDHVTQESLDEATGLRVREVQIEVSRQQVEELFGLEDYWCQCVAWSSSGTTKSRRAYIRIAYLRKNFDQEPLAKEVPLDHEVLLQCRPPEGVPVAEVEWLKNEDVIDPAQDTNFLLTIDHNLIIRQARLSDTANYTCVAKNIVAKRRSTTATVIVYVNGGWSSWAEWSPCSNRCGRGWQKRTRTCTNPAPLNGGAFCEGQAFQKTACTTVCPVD
Sequence of Unc5D (F1LW30 46-307): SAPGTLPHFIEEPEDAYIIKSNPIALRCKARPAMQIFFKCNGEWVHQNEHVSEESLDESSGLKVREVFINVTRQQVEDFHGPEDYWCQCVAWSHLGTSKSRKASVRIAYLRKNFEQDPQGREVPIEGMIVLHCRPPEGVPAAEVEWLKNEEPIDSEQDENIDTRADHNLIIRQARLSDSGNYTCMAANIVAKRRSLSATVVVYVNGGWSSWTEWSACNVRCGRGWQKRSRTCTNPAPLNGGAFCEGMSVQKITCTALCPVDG
Sequence of Unc5A (Q8K1S4 38-298): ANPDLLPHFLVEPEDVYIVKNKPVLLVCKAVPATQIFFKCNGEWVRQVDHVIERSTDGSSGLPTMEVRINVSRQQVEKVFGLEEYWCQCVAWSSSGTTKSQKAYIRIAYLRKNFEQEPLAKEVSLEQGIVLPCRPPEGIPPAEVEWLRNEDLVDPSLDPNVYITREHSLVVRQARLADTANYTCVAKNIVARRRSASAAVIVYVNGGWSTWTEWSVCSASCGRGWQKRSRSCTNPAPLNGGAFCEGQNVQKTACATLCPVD

B1: GPC3 (protein)
chain: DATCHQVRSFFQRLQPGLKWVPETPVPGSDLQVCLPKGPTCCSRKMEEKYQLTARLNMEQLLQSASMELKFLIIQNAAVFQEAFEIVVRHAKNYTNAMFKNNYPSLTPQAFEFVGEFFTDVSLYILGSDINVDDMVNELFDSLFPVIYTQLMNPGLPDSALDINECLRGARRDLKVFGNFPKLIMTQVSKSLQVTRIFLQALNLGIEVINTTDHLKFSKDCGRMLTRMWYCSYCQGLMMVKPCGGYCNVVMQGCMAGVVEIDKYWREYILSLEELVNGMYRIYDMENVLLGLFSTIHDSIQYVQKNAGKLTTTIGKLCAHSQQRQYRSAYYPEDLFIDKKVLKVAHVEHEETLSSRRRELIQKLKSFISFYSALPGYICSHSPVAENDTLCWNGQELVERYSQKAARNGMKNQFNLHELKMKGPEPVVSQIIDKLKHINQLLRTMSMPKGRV
Kd (Unc5D): 370 nM
Kd (Unc5A): 890 nM
Kd (Unc5B): 370 nM
Kd (Unc5C): 980 nM
